The assay concerns the target T1, SENP1 C603A (415–644) (human, UniProt Q9P0U3 415-644, C603A).
T1 sequence: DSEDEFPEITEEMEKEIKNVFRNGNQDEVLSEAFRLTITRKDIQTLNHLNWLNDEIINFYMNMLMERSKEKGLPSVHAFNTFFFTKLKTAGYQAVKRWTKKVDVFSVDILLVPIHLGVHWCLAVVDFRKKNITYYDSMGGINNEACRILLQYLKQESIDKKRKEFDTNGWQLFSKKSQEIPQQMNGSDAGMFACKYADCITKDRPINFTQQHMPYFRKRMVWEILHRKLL
Put plainly: ITC. A general note: ITC needs no label: the signal is the heat of the interaction.

B1: full-length SUMO-2 (SUMO-2-FL) (natural protein)
chain: not shown
B1: the Kd amounted to 492 nM, the dH is -4.38 kcal/mol and the “stoichiometry N” value turned out to be 1.

For orientation: Kd means a measure of binding affinity in units of concentration. The stoichiometry N is a count of units in the complex or per binding partner.
